Test results reported in patent US9763922B2 (priority 2014, dated 2017).

Tested on: MYC
Test: cells
Conditions: Homo sapiens, MV4-11, 4 h, read-out: Myc IC50 (μM)

Going from `CC(=O)N1CCc2c(c(N3CCCc4cc(-c5cn(C)nc5C#N)ccc43)nn2[C@H]2CCOC2)C1` [Example 52, 4-[1-[5-acetyl-1-[(3S)-tetrahydrofuran-3-yl]-6,7-dihydro-4H-pyrazolo[4,3-c]pyridin-3-yl]-3,4-dihydro-2H-quinolin-6-yl]-1-methyl-pyrazole-3-carbonitrile] to `CC(=O)N1CCc2c(c(N3CCc4cc(-c5cn(C)nc5C#N)ccc43)nn2C2CCOC2)C1` (centres unmarked) [Example 187, 4-[1-(5-acetyl-1-tetrahydrofuran-3-yl-6,7-dihydro-4H-pyrazolo[4,3-c]pyridin-3-yl)indolin-5-yl]-1-methyl-pyrazole-3-carbonitrile], the IC50 falls from 3.28 µM to 0.284 µM (12-fold). The second is the more potent here.

Compared with `CNC(=O)c1ccc(-c2ccc3c(c2)CCCN3c2nn([C@H]3CCOC3)c3c2CN(C(C)=O)CC3)cn1` [Example 46, 5-[1-[5-acetyl-1-[(3S)-tetrahydrofuran-3-yl]-6,7-dihydro-4H-pyrazolo[4,3-c]pyridin-3-yl]-3,4-dihydro-2H-quinolin-6-yl]-N-methyl-pyridine-2-carboxamide], `CNC(=O)c1ccc(-c2cc3c(cc2C(F)F)N(c2nn(C4CCOCC4)c4c2CN(C(C)=O)CC4)CCC3)cn1` [Example 124, 5-(1-(5-acetyl-1-(tetrahydro-2H-pyran-4-yl)-4,5,6,7-tetrahydro-1H-pyrazolo[4,3-c]pyridin-3-yl)-7-(difluoromethyl)-1,2,3,4-tetrahydroquinolin-6-yl)-N-methylpicolinamide] is 260-fold lower in IC50: 1.53 µM for the first, 0.006 µM for the second. The second is the more potent here.

First: CC(=O)N1CCc2c(c(N3CCCc4cc(-c5cnn(C)c5)c(OC(F)F)cc43)nn2C2COC2)C1 [Example 147, 1-[3-[7-(difluoromethoxy)-6-(1-methylpyrazol-4-yl)-3,4-dihydro-2H-quinolin-1-yl]-1-(oxetan-3-yl)-6,7-dihydro-4H-pyrazolo[4,3-c]pyridin-5-yl]ethanone]
Second: CC(=O)N1CCc2c(c(N3CCCc4cc(-c5cnn(C)c5)c(Cl)cc43)nn2[C@H]2CCOC2)C1 [Example 125, 1-[3-[7-chloro-6-(1-methylpyrazol-4-yl)-3,4-dihydro-2H-quinolin-1-yl]-1-[(3S)-tetrahydrofuran-3-yl]-6,7-dihydro-4H-pyrazolo[4,3-c]pyridin-5-yl]ethanone]
The IC50 of the first is 1.9-fold lower: 0.135 µM for the first, 0.259 µM for the second. The first is the more potent here.

Going from `CC(=O)N1CCc2c(c(N3CCCc4cc(-c5cnn(C)c5C)c(C#N)cc43)nn2C2COC2)C1` [Example 130, 1-[5-acetyl-1-(oxetan-3-yl)-6,7-dihydro-4H-pyrazolo[4,3-c]pyridin-3-yl]-6-(1,5-dimethylpyrazol-4-yl)-3,4-dihydro-2H-quinoline-7-carbonitrile] to `CC(=O)N1CCc2c(c(N3CCc4cc(-c5cnn(C)c5C)ccc43)nn2C2CCOC2)C1` (centres unmarked) [Example 184, 1-[3-[5-(1,5-dimethylpyrazol-4-yl)indolin-1-yl]-1-tetrahydrofuran-3-yl-6,7-dihydro-4H-pyrazolo[4,3-c]pyridin-5-yl]ethanone], the IC50 rises from 0.323 µM to 0.982 µM (3-fold). The first is the more potent here.

Going from `CC(=O)N1CCc2c(c(N3CCCc4cc(-c5cnn(C)c5)c(C(F)F)cc43)nn2[C@H]2CCCOCC2)C1` (single isomer, unassigned) [Example 373] to `CNC(=O)N1CCc2c(c(N3CCCc4cc(-c5cnn(C)c5)c(C(F)F)cc43)nn2[C@@H]2CCCOCC2)C1` [Example 380, (R)-3-(7-(difluoromethyl)-6-(1-methyl-1H-pyrazol-4-yl)-3,4-dihydroquinolin-1(2H)-yl)-N-methyl-1-(oxepan-4-yl)-1,4,6,7-tetrahydro-5H-pyrazolo[4,3-c]pyridine-5-carboxamide], the IC50 falls from 0.023 µM to 0.004 µM (5.8-fold). The second is the more potent here.

First: CNC(=O)N1CCc2c(c(N3C[C@@H](C)N(C)c4cc(-c5cnn(C)c5)c(C(F)(F)F)cc43)nn2C2CCOCC2)C1 [Example 272, (R)-3-[3,4-dimethyl-6-(1-methylpyrazol-4-yl)-7-(trifluoromethyl)-2,3-dihydroquinoxalin-1-yl]-N-methyl-1-tetrahydropyran-4-yl-6,7-dihydro-4H-pyrazolo[4,3-c]pyridine-5-carboxamide]
Second: CC(=O)N1CCc2c(c(N3C[C@H](C)N(C)c4cc(-c5cnn(C)c5)c(C(F)(F)F)cc43)nn2C2CCOCC2)C1 [Example 273, (S)-1-[3-[3,4-dimethyl-6-(1-methylpyrazol-4-yl)-7-(trifluoromethyl)-2,3-dihydroquinoxalin-1-yl]-1-tetrahydropyran-4-yl-6,7-dihydro-4H-pyrazolo[4,3-c]pyridin-5-yl]ethanone]
The IC50 of the first is 4.5-fold lower: 0.006 µM for the first, 0.027 µM for the second. The first is the more potent here.

First: CC(=O)N1CCc2c(c(N3CCc4cc(-c5cnn(C)c5)ccc43)nn2C2CCOC2)C1 (centres unmarked) [Example 171, 1-[3-[5-(1-methylpyrazol-4-yl)indolin-1-yl]-1-tetrahydrofuran-3-yl-6,7-dihydro-4H-pyrazolo[4,3-c]pyridin-5-yl]ethanone]
Second: CC(=O)N1CCc2c(c(N3CCNc4cc(-c5cnn(C)c5)ccc43)nn2[C@H]2CCOC2)C1 [Example 93, 1-[3-[6-(1-methylpyrazol-4-yl)-3,4-dihydro-2H-quinoxalin-1-yl]-1-[(3S)-tetrahydrofuran-3-yl]-6,7-dihydro-4H-pyrazolo[4,3-c]pyridin-5-yl]ethanone]
The IC50 of the first is 2.4-fold higher: 2.95 µM for the first, 1.25 µM for the second.

`CC(=O)N1CCc2c(c(Nc3ccc(-c4cnn(C)c4C)cc3F)nn2[C@@H]2CCOC2)C1` [Example 285, (R)-1-[3-[4-(1,5-dimethylpyrazol-4-yl)-2-fluoro-anilino]-1-tetrahydrofuran-3-yl-6,7-dihydro-4H-pyrazolo[4,3-c]pyridin-5-yl]ethanone] and `CC(=O)N1CCc2c(c(Nc3ccc(-c4cn(C)nc4C(F)F)cc3F)nn2[C@@H]2CCOC2)C1` [Example 307, (R)-1-[3-[4-[3-(difluoromethyl)-1-methyl-pyrazol-4-yl]-2-fluoro-anilino]-1-tetrahydrofuran-3-yl-6,7-dihydro-4H-pyrazolo[4,3-c]pyridin-5-yl]ethanone] are within 1.5-fold of each other in IC50: 0.58 µM for the first, 0.54 µM for the second.

`CC(=O)N1CCc2c(c(Nc3ccc(-c4cnn(C)c4)cc3)nn2C)C1` [Example 173, 1-(3-indolin-1-yl-1-methyl-6,7-dihydro-4H-pyrazolo[4,3-c]pyridin-5-yl)ethanone] and `CC(=O)N1CCc2c(c(Nc3cccc(-c4cnn(C)c4)c3)nn2CC2CC2(F)F)C1` (centres unmarked) [Example 85, 1-(5-acetyl-1-tetrahydropyran-4-yl-6,7-dihydro-4H-pyrazolo[4,3-c]pyridin-3-yl)-3-methyl-6-(1-methylpyrazol-4-yl)-3,4-dihydro-2H-quinoline-7-carbonitrile] are within 1.5-fold of each other in IC50: 0.63 µM for the first, 0.45 µM for the second.

`CC(=O)N1CCc2c(c(Nc3cccc(-c4cnn(C)c4)c3F)nn2CC2CC2)C1` [Example 37, 1-[1-(cyclopropylmethyl)-3-[2-fluoro-3-(1-methylpyrazol-4-yl)anilino]-6,7-dihydro-4H-pyrazolo[4,3-c]pyridin-5-yl]ethanone] and `CC(=O)N1CCc2c(c(N(C)c3ccc(-c4cnn(C)c4)cc3)nn2CC2CC2)C1` [Example 225, 1-[1-(cyclopropylmethyl)-3-[N-methyl-4-(1-methylpyrazol-4-yl)anilino]-6,7-dihydro-4H-pyrazolo[4,3-c]pyridin-5-yl]ethanone] are within 1.5-fold of each other in IC50: 0.46 µM for the first, 0.535 µM for the second.

First: CC(=O)N1CCc2c(c(N3CCC(C)c4cc(-c5cnn(C)c5)ccc43)nn2[C@H]2CCOC2)C1 (stereo in doubt) [Example 106, 1-[3-[4-methyl-6-(1-methylpyrazol-4-yl)-3,4-dihydro-2H-quinolin-1-yl]-1-tetrahydrofuran-3-yl-6,7-dihydro-4H-pyrazolo[4,3-c]pyridin-5-yl]ethanone]
Second: CC(=O)N1CCc2c(c(N3CCCc4cc(-c5cnn(C)c5)c(C)cc43)nn2C2CCOCC2)C1 [Example 246, 1-[3-[7-methyl-6-(1-methylpyrazol-4-yl)-3,4-dihydro-2H-quinolin-1-yl]-1-tetrahydropyran-4-yl-6,7-dihydro-4H-pyrazolo[4,3-c]pyridin-5-yl]ethanone]
The IC50 of the first is 23-fold higher: 2.15 µM for the first, 0.094 µM for the second. The second is the more potent here.

Compared with `CNC(=O)N1CCc2c(c(N3CCCc4cc(-c5cnn(C)c5C)c(C(F)F)cc43)nn2C2CCS(=O)(=O)CC2)C1` [Example 324, 3-[7-(difluoromethyl)-6-(1,5-dimethylpyrazol-4-yl)-3,4-dihydro-2H-quinolin-1-yl]-1-(1,1-dioxothian-4-yl)-N-methyl-6,7-dihydro-4H-pyrazolo[4,3-c]pyridine-5-carboxamide], `CNC(=O)N1CCc2c(c(N3CCCc4cc(-c5cnn(C)c5)c(C(F)F)cc43)nn2C2CCS(=O)(=O)CC2)C1` [Example 325, 3-[7-(difluoromethyl)-6-(1-methylpyrazol-4-yl)-3,4-dihydro-2H-quinolin-1-yl]-1-(1,1-dioxothian-4-yl)-N-methyl-6,7-dihydro-4H-pyrazolo[4,3-c]pyridine-5-carboxamide] is 1.5-fold higher in IC50: 0.011 µM for the first, 0.017 µM for the second. The first is the more potent here.

Compared with `CNC(=O)N1CCc2c(c(N3CCCc4cc(-c5cnn(C)c5)c(C(F)(F)F)cc43)nn2C2CCOCC2)C1` [Example 254, N-methyl-3-[6-(1-methylpyrazol-4-yl)-7-(trifluoromethyl)-3,4-dihydro-2H-quinolin-1-yl]-1-tetrahydropyran-4-yl-6,7-dihydro-4H-pyrazolo[4,3-c]pyridine-5-carboxamide], `CNC(=O)N1CCc2c(c(N3CCCc4cc(-c5cnn(C)c5)c(C(F)F)cc43)nn2C2CCN(C(C)=O)CC2)C1` [Example 328, 1-(1-acetyl-4-piperidyl)-3-[7-(difluoromethyl)-6-(1-methylpyrazol-4-yl)-3,4-dihydro-2H-quinolin-1-yl]-N-methyl-6,7-dihydro-4H-pyrazolo[4,3-c]pyridine-5-carboxamide] is 1.8-fold higher in IC50: 0.004 µM for the first, 0.007 µM for the second. The first is the more potent here.

Going from `CC(=O)N1CCc2c(c(N3CCc4cc(-c5cn(C)nc5C(F)(F)F)ccc43)nn2C2CCOC2)C1` (centres unmarked) [Example 179, 1-[3-[5-[1-methyl-3-(trifluoromethyl)pyrazol-4-yl]indolin-1-yl]-1-tetrahydrofuran-3-yl-6,7-dihydro-4H-pyrazolo[4,3-c]pyridin-5-yl]ethanone] to `CC(=O)N1CCc2[nH]nc(N3CCCc4cc(-c5cnn(C)c5)c(C(F)F)cc43)c2C1` [Example 333, 1-[3-[7-(difluoromethyl)-6-(1-methylpyrazol-4-yl)-3,4-dihydro-2H-quinolin-1-yl]-1,4,6,7-tetrahydropyrazolo[4,3-c]pyridin-5-yl]ethanone], the IC50 falls from 2.46 µM to 0.063 µM (39-fold). The second is the more potent here.

`CC(=O)N1CCc2c(c(N3CC(C)(C)c4cc(-c5cnn(C)c5)ccc43)nn2C)C1` [Example 199, 1-[3-[3,3-dimethyl-5-(1-methylpyrazol-4-yl)indolin-1-yl]-1-methyl-6,7-dihydro-4H-pyrazolo[4,3-c]pyridin-5-yl]ethanone] gave an IC50 of 1.79 µM.
